Reference: the RNAGym collection of RNA variant scans (doi:10.1073/pnas.2313332121)
Variants at the background level are over-represented here.

B1: TPR 5TU (parent)
chain: GGAUCUUCUCGAUCUAACAAAAAAGACAAAUCUGCCACAAAGCUUGAGAGCAUCUUCGGAUGCAGAGGCGGCAGCCUUCGGUGGCGCGAUAGCGCCAACGUUCUCAACUAUGACACGCAAAACGCGUGCUCCGUUGAAUGGAGUUUAUCAUG

Variants of: B1
Test: polymerase ribozyme fitness, log enrichment relative to wild type (log ratio); higher = more active; in vitro selection for triplet polymerase activity
How it was run: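 To select mutant libraries of each subunit of a heterodimeric triplet polymerase ribozyme, built by PCR and transcribed, each was annealed with a biotinylated primer, partner subunit and triplets, then incubated frozen at −7 °C. Extended constructs were gel-excised, captured on streptavidin beads and amplified by RT-PCR, in one round carried out in triplicate. Illumina sequencing of input and output libraries kept genotypes with ≥10 input reads and ≥1 read per output. Fitness is the base-2 logarithm of genotype enrichment relative to wild-type enrichment, from inverse-variance-weighted replicate averages.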

| Variant | polymerase ribozyme fitness (log ratio) |
| --- | --- |
| U61A C76U C103G G143U | ≤ -4.2 |
| G59C C93A C105A | ≤ -4.2 |
| G59C U90C U101A G152U | ≤ -4.2 |
| A60G G71A U78A C96U | ≤ -4.2 |
| G59U C75U C87A C96G | ≤ -4.2 |
| G59C C85G | -1.64 |
| G59A U90G C103A C118A | ≤ -4.2 |
| G59C G65C | ≤ -4.2 |
| A60U C87U U135C | -3.65 |
| G59U G80A U127A U144C | ≤ -4.2 |
| G59U G80C C95G U104G | ≤ -4.2 |
| G59C C85U C103U A137C G152U | ≤ -4.2 |
| U61A C76A | -3.6 |
| U61A C76G | ≤ -4.2 |
| G59C C87G | ≤ -4.2 |
| G59U G74A U102G | ≤ -4.2 |
| G59U C103U | -0.503 |
| G59A G94U C95A U104C | -2.63 |
| A60G G94U | -0.467 |
| G59C G84A C85A G117C C149A | ≤ -4.2 |
| G59U G88C U101G | ≤ -4.2 |
| U61A A89G C95U C114G G126A | ≤ -4.2 |
| U61A C72U C103A | ≤ -4.2 |
| A60C G80A G88C A142U U144G | ≤ -4.2 |

| Variant | polymerase ribozyme fitness (log ratio) |
| --- | --- |
| A60G G83A G133C | -1 |
| A60G A73C G94U U111A | ≤ -4.2 |
| A60C C76U C93U | -3.48 |
| G59C G65C C76G U145G C149A | ≤ -4.2 |
| U61A C76A A106C C108G U135G G143U | ≤ -4.2 |
| A60G C96A A121U | -0.437 |
| G59C G68C C118G | -4.15 |
| G59C C87U U102G C132U U145G | ≤ -4.2 |
| U61A C69U G88A C99G G140A | ≤ -4.2 |
| G59C G67A U78G C79A C87A G143A | ≤ -4.2 |
| G59C G68C G92A | ≤ -4.2 |
| G59U C95G A113G G136C | ≤ -4.2 |
| G59U G67C G74A U77G C93G C116A | ≤ -4.2 |
| A60U G141U | 0.392 |
| G59C A73G C85A | -2.84 |
| U61A A98U U134G G140U U145A | ≤ -4.2 |
| A60U G88C C93U | ≤ -4.2 |
| A60G A113C U139G U145C U148C | ≤ -4.2 |
| G59C G65U C85U C99G G126A G136C | ≤ -4.2 |
| G59C U61G G88C C103G G117U U135G | ≤ -4.2 |
| A60G C72U G124A | 0.612 |
| G59C C108A | ≤ -4.2 |
| A60G U61A C69U G86A C114U U144G | ≤ -4.2 |
| A60G U130G G141A U145G | ≤ -4.2 |

| Variant | polymerase ribozyme fitness (log ratio) |
| --- | --- |
| G59C C93A A97G C118A U148A | ≤ -4.2 |
| G59A U78A C95U C103G G152C | ≤ -4.2 |
| A60G G100A U151G | ≤ -4.2 |
| A60U C63G G133U | ≤ -4.2 |
| G59A U77A C87G G92C A107G | ≤ -4.2 |
| G59A U102C A107U | ≤ -4.2 |
| G59U U77G C96U G126U U139A A147G | ≤ -4.2 |
| A60G G62C G70C | ≤ -4.2 |
| A60C C76A A98U C105G U135G | ≤ -4.2 |
| A60U C75U G83C C95U | ≤ -4.2 |
| A60G A73U C93U G133U U134A | ≤ -4.2 |
| A60C G65A A91C A121U G141U | ≤ -4.2 |
| A60G G88U U101G | ≤ -4.2 |
| A60U C63U C75A G92C C93U A121U G143A | ≤ -4.2 |
| A60G C116A | 1.26 |
| G59U A97C | -0.238 |
| A60G G68A U139A | ≤ -4.2 |
| A60U A91U | ≤ -4.2 |
| G59C C93U C103A A150G | ≤ -4.2 |
| G59C G68U A73G G92C A122U C123U | ≤ -4.2 |
| G59A U102G A113G U146G | ≤ -4.2 |
| G59C C96G A147U U148C | ≤ -4.2 |
| G59U A60C G83A C116U C118G | -2.5 |
| G59C C149A | ≤ -4.2 |

| Variant | polymerase ribozyme fitness (log ratio) |
| --- | --- |
| A60G G70C A107C U111A | ≤ -4.2 |
| G59C C87A A122C C149G | ≤ -4.2 |
| G59U C132G U146G | ≤ -4.2 |
| G59A G92A C96A C105G C118G A121C U134G A142U U146C | ≤ -4.2 |
| A60G G86U U101G G143U | ≤ -4.2 |
| G59C G86U | -1.67 |
| U61A A89U C95G G133C | ≤ -4.2 |
| A60G C85U U144G | 0.543 |
| G59C G83U C108G A113C U146A A150G | ≤ -4.2 |
| G59U C69U C87G A107U G117U | ≤ -4.2 |
| A60G C69A A91U A97U U134C | ≤ -4.2 |
| G59C A64G G84A C93U | ≤ -4.2 |
| G59C C87A U101C G141U A147U | ≤ -4.2 |
| U61A C75A G128A A137C | ≤ -4.2 |
| G59C A119U C149U | -0.775 |
| G59A G92C G94U U148G G152A | ≤ -4.2 |
| A60G G88U C96G U145G U146A | ≤ -4.2 |
| G59U U78G | ≤ -4.2 |
| G59C A73U C96A G143A | ≤ -4.2 |
| G59C C75U | -1.52 |
| A60G U61G A64U G65U G92C A98G A150U | ≤ -4.2 |
| U61A A107U U127G G128C U148A | ≤ -4.2 |
| U61A C69U A98U | -2.9 |
| G59C U61C U90C | ≤ -4.2 |

| Variant | polymerase ribozyme fitness (log ratio) |
| --- | --- |
| A60G G71U C79A G88U C116U | ≤ -4.2 |
| A60G C79A C96U A115G C123A | ≤ -4.2 |
| A60G A66C G94U C108U C125U U139C | -4 |
| U61A A73G C79U C87G G141A | ≤ -4.2 |
| A60G G67A U78C U102A A107G | ≤ -4.2 |
| G59U A60U U82G A91G G94A | ≤ -4.2 |
| A60C G81U C99U C129G A142G | ≤ -4.2 |
| A60G C75A U134G | ≤ -4.2 |
| A60G G67A U111A A150C | ≤ -4.2 |
| G59A G100C | ≤ -4.2 |
| A60G A119C A120U U151C | -4.18 |
| G59A G88U A89G G94U A113G | ≤ -4.2 |
| G59U G94A C118U A150G | -1.69 |
| U61A A107C G128U U139A | ≤ -4.2 |
| G59A U127A | -3.81 |
| A60C C63U C76G C85U A98C A119U G140U | ≤ -4.2 |
| G59U C105U A107G A120G | ≤ -4.2 |
| G59C U77C C87U C99A A138U C149U | ≤ -4.2 |
| A60G A91G | -2.73 |
| A60C U61A | -2.27 |
| U61A C76G G124A | ≤ -4.2 |
| G59C G80C C125A A147U | ≤ -4.2 |
| A60U C85G G92C U102G | ≤ -4.2 |
| G59C A138G | -3.04 |

| Variant | polymerase ribozyme fitness (log ratio) |
| --- | --- |
| A60C C76U C87G U90A C96U A122C A150U | ≤ -4.2 |
| A60U C93A A97C A98U C129G | ≤ -4.2 |
| G59C G124A U151C | -3.78 |
| G59C G62A C93A U148A | ≤ -4.2 |
| A60G G143U | -1.77 |
| A60G A73U C93U C114A A121U U145C | ≤ -4.2 |
| A60G U61G C76A G124C C125G | ≤ -4.2 |
| U61A A107G | ≤ -4.2 |
| G59U G71U C87A | ≤ -4.2 |
| U61A A66G U111G C116U U139A | ≤ -4.2 |
| G59A G94A | -0.522 |
| G59U G71A U77G G94C C95U A122C U139G | ≤ -4.2 |
| A60U G92U C93U C95U C125U | ≤ -4.2 |
| A60C A73U | -3.54 |
| A60U U78A G81C C85G C103G | ≤ -4.2 |
| U61A A91U U127G | ≤ -4.2 |
| G59U A66G A91G G100U U134A G143A A147G A150C | ≤ -4.2 |
| G59C U127A | -3.77 |
| A60C U82A G84U U102G G126U | ≤ -4.2 |
| A60C G92U A97G | -2.29 |
| A60C G84C C87U U90G A106U G152A | ≤ -4.2 |
| G59U C75G G83C C103A A150G | ≤ -4.2 |
| G59U A66C G71A G80U G94U A122G G143C | ≤ -4.2 |
| G59A G133U G136C U148C | ≤ -4.2 |

| Variant | polymerase ribozyme fitness (log ratio) |
| --- | --- |
| G59C G68A C93U G126U A147G | ≤ -4.2 |
| A60U C87A A98C A120G | ≤ -4.2 |
| G59U A120G | -0.485 |
| A60C G74A C96A G117A C131G A137G | ≤ -4.2 |
| G59U A66G G86U U109G C118U G140U | ≤ -4.2 |
| G59C C96G C118G A142U | -3.61 |
| A60G U90A C95A G117A | -3.93 |
| A60C G71C C93G G140A U151C | ≤ -4.2 |
| G59U A106G C114U | -1.65 |
| G59A G100A U127G U135G G143A G152U | ≤ -4.2 |
| A60G G94U G117U U130G C132G | ≤ -4.2 |
| G59C A60U | 0.153 |
| A60U C76A G92U A107G C123U G126C U145G | ≤ -4.2 |
| G59C G94C G126A U139A | ≤ -4.2 |
| G59C C85A C99U G141U U146G | ≤ -4.2 |
| A60U G92A C114U G140C A147C | ≤ -4.2 |
| G59U C96U A121C G126A U146G | -2.76 |
| G59C C96U A106G C132U U145C | -0.905 |
| A60C U101G | -1.58 |
| G59U A60G C93U | -3.87 |
| A60G C76A G80C G94C C114U G143C U148A | ≤ -4.2 |
| A60C C93A A98U A122C | -2.61 |
| A60C G65U C76G U139A A142C | ≤ -4.2 |
